# Laboratory results: the supplement of paper PMC8728848
# The list shows a part of the results.
# How the values were obtained:
# Assay in all cases: glycan array binding signal (z-score within array); higher = stronger binding
# Conditions in all cases: glycan notation: IUPAC condensed, linker removed
# Fuc(a1-2)Gal = biological target: Fuc(a1-2)Gal
# Outline: (§1)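 Glycan array binding is given as a within-array Z-score, which can be read as non-binding when negative. The arrays, 3228 of them, came from the Consortium for Functional Glycomics database and were retained only where the protein sequence was available. Z-scores were averaged across arrays of the same protein sequence at different concentrations or buffers and across linkers.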
# Fuc(a1-2)Gal(b1-3)GalNAc = biological target: Fuc(a1-2)Gal(b1-3)GalNAc
# Outline: as §1
# [1] = biological target: Fuc(a1-2)Gal(b1-3)GalNAc(a1-3)[Fuc(a1-2)]Gal(b1-4)Glc
# Outline: as §1
# [2] = biological target: Fuc(a1-2)Gal(b1-3)GalNAc(a1-3)[Fuc(a1-2)]Gal(b1-4)GlcNAc
# Outline: as §1
# [3] = biological target: Fuc(a1-2)Gal(b1-3)GalNAc(b1-3)Gal
# Outline: as §1
# [4] = biological target: Fuc(a1-2)Gal(b1-3)GalNAc(b1-3)Gal(a1-4)Gal(b1-4)Glc
# Outline: as §1
# [5] = biological target: Fuc(a1-2)Gal(b1-3)GalNAc(b1-4)[Neu5Ac(a2-3)]Gal(b1-4)Glc
# Outline: as §1
# Fuc(a1-2)Gal(b1-3)GlcNAc = biological target: Fuc(a1-2)Gal(b1-3)GlcNAc
# Outline: as §1
# [6] = biological target: Fuc(a1-2)Gal(b1-3)GlcNAc(b1-2)Man(a1-3)[Fuc(a1-2)Gal(b1-3)GlcNAc(b1-2)Man(a1-6)]Man(b1-4)GlcNAc(b1-4)GlcNAc
# Outline: as §1
# [7] = biological target: Fuc(a1-2)Gal(b1-3)GlcNAc(b1-2)Man(a1-3)[Fuc(a1-2)Gal(b1-3)GlcNAc(b1-2)Man(a1-6)]Man(b1-4)GlcNAc(b1-4)[Fuc(a1-6)]GlcNAc
# Outline: as §1
# [8] = biological target: Fuc(a1-2)Gal(b1-3)GlcNAc(b1-3)Gal(b1-4)Glc
# Outline: as §1
# [9] = biological target: Fuc(a1-2)Gal(b1-3)GlcNAc(b1-3)GalNAc
# Outline: as §1
# [10] = biological target: Fuc(a1-2)Gal(b1-3)GlcNAc(b1-3)[Fuc(a1-2)Gal(b1-3)GlcNAc(b1-6)]GalNAc
# Outline: as §1
# [11] = biological target: Fuc(a1-2)Gal(b1-3)GlcNAc(b1-3)[Gal(b1-4)GlcNAc(b1-6)]Gal(b1-4)Glc
# Outline: as §1
# [12] = biological target: Fuc(a1-2)Gal(b1-3)GlcNAc(b1-3)[Neu5Ac(a2-6)Gal(b1-4)GlcNAc(b1-6)]Gal(b1-4)Glc
# Outline: as §1
# [13] = biological target: Fuc(a1-2)Gal(b1-3)GlcNAc6S
# Outline: as §1
# [14] = biological target: Fuc(a1-2)Gal(b1-3)[Fuc(a1-4)]GlcNAc
# Outline: as §1
# [15] = biological target: Fuc(a1-2)Gal(b1-3)[Fuc(a1-4)]GlcNAc(b1-2)Man(a1-3)[Fuc(a1-2)Gal(b1-3)[Fuc(a1-4)]GlcNAc(b1-2)Man(a1-3)]Man(b1-4)GlcNAc(b1-4)GlcNAc
# Outline: as §1
# [16] = biological target: Fuc(a1-2)Gal(b1-3)[Fuc(a1-4)]GlcNAc(b1-2)Man(a1-3)[Fuc(a1-2)Gal(b1-3)[Fuc(a1-4)]GlcNAc(b1-2)Man(a1-6)]Man(b1-4)GlcNAc(b1-4)[Fuc(a1-6)]GlcNAc(b1-4)[Fuc(a1-6)]GlcNAc
# Outline: as §1
# [17] = biological target: Fuc(a1-2)Gal(b1-3)[Fuc(a1-4)]GlcNAc(b1-3)[Fuc(a1-3)[Gal(b1-4)]GlcNAc(b1-6)]Gal(b1-4)Glc
# Outline: as §1
# [18] = biological target: Fuc(a1-2)Gal(b1-3)[Fuc(a1-4)]GlcNAc(b1-3)[Gal(b1-4)GlcNAc(b1-6)]Gal(b1-4)Glc
# Outline: as §1
# Fuc(a1-2)Gal(b1-4)Glc = biological target: Fuc(a1-2)Gal(b1-4)Glc
# Outline: as §1
# Fuc(a1-2)Gal(b1-4)Glc6S = biological target: Fuc(a1-2)Gal(b1-4)Glc6S
# Outline: as §1
# Fuc(a1-2)Gal(b1-4)GlcNAc = biological target: Fuc(a1-2)Gal(b1-4)GlcNAc
# Outline: as §1
# [19] = biological target: Fuc(a1-2)Gal(b1-4)GlcNAc(b1-2)Man
# Outline: as §1
# [20] = biological target: Fuc(a1-2)Gal(b1-4)GlcNAc(b1-2)Man(a1-3)[Fuc(a1-2)Gal(b1-4)GlcNAc(b1-2)Man(a1-6)]Man(b1-4)GlcNAc(b1-4)GlcNAc
# Outline: as §1
# [21] = biological target: Fuc(a1-2)Gal(b1-4)GlcNAc(b1-2)Man(a1-3)[Fuc(a1-2)Gal(b1-4)GlcNAc(b1-2)Man(a1-6)]Man(b1-4)GlcNAc(b1-4)[Fuc(a1-6)]GlcNAc
# Outline: as §1
# [22] = biological target: Fuc(a1-2)Gal(b1-4)GlcNAc(b1-2)[Fuc(a1-2)Gal(b1-4)GlcNAc(b1-4)]Man(a1-3)[Fuc(a1-2)Gal(b1-4)GlcNAc(b1-2)Man(a1-6)]Man(b1-4)GlcNAc(b1-4)GlcNAc
# Outline: as §1
# [23] = biological target: Fuc(a1-2)Gal(b1-4)GlcNAc(b1-3)Gal(b1-4)GlcNAc
# Outline: as §1
# [24] = biological target: Fuc(a1-2)Gal(b1-4)GlcNAc(b1-3)Gal(b1-4)GlcNAc(b1-2)Man(a1-3)[Fuc(a1-2)Gal(b1-4)GlcNAc(b1-3)Gal(b1-4)GlcNAc(b1-2)Man(a1-6)]Man(b1-4)GlcNAc(b1-4)GlcNAc
# Outline: as §1
binder,measurement,setting,value
B725 (Bifidobacterium sp) (protein) MNNTTRAVIATAAIGALLIPLAGCGNTTTSSGKTELTVWSWDASIDRAAKSFMKANPDITVKVSNVGSTEETYTALNNAAQAGSGLPDVTLIEYLAIPQFVHSDTLMDLSKVYNTAKLKDTFTPGTWNSVNINGGLYAMPADSGPMAYFYDKDVFDKAGISEPPTTWDEFYEDAKKIRATGSYITSDSGDAGLFNAMMWAMGGHAYKLNDDKLTINIAKDKGAQRFMDLWQKMRDEDLIDVHTKTWTDDWMKSLGDGSIASLISGAWMANNLLQGVPQATGKFRVALLPTIDGTPINGEYGGSGLAITKKIPDGKLDAAKKFVEYVTTNDEGIDARVSNGSFPATTKTLNQKDFLAKTTLRNTDGSDNEFFGGQKYNEIFSQAAKDVTGKWEFLPFEPYARSVYNDNMGSFFAGKTSFRTAADNWQKALKDYAKDQGFTVQ,glycan array binding signal (z-score),Fuc(a1-2)Gal,-0.221
same,glycan array binding signal (z-score),Fuc(a1-2)Gal(b1-3)GalNAc,-0.216
same,glycan array binding signal (z-score),[1],-0.208
same,glycan array binding signal (z-score),[2],-0.229
same,glycan array binding signal (z-score),[3],-0.205
same,glycan array binding signal (z-score),[4],-0.214
same,glycan array binding signal (z-score),[5],-0.211
same,glycan array binding signal (z-score),Fuc(a1-2)Gal(b1-3)GlcNAc,-0.292
same,glycan array binding signal (z-score),[6],-0.208
same,glycan array binding signal (z-score),[7],-0.181
same,glycan array binding signal (z-score),[8],-0.176
same,glycan array binding signal (z-score),[9],-0.203
same,glycan array binding signal (z-score),[10],-0.215
same,glycan array binding signal (z-score),[11],-0.206
same,glycan array binding signal (z-score),[12],-0.219
same,glycan array binding signal (z-score),[13],-0.234
same,glycan array binding signal (z-score),[14],-0.215
same,glycan array binding signal (z-score),[15],-0.202
same,glycan array binding signal (z-score),[16],-0.192
same,glycan array binding signal (z-score),[17],-0.216
same,glycan array binding signal (z-score),[18],-0.2
same,glycan array binding signal (z-score),Fuc(a1-2)Gal(b1-4)Glc,-0.225
same,glycan array binding signal (z-score),Fuc(a1-2)Gal(b1-4)Glc6S,-0.2
same,glycan array binding signal (z-score),Fuc(a1-2)Gal(b1-4)GlcNAc,-0.225
same,glycan array binding signal (z-score),[19],-0.229
same,glycan array binding signal (z-score),[20],-0.187
same,glycan array binding signal (z-score),[21],-0.198
same,glycan array binding signal (z-score),[22],-0.192
same,glycan array binding signal (z-score),[23],-0.159
same,glycan array binding signal (z-score),[24],-0.162
